Consider 52 compounds from PubChem BioAssay AID588579 (National Center for Advancing Translational Sciences (NCATS), 2011).

“And” between values parts separate entries of the source, which are not always exact repeats. Equal entries are not always repeated. Hit rate of the full screen: of about 400,000 compounds, about 2,200 (0.55%) were called active. Roughly 1% stayed inconclusive and do not appear here. Calls come from the whole dose curve; as a rule, active = well fitted inhibition curve with a large enough effect; inconclusive = small, poorly fitted or top-dose-only effect, or another doubt; inactive = no such curve, though single readings can be large or run the other way. The list shows a part of the results, in another mix than the full data. More than one record can exist for a structure, and the calls need not agree.
% is set by controls: 0 for no effect and ±100 for the full control effect; potency is the fitted concentration of half-maximal effect.

This assay has as its target DNA polymerase kappa (Homo sapiens) (UniProt Q9UBT6). The assay can be described thus: qHTS for Inhibitors of Polymerase Kappa. Particulars: purified Pol kappa, fluorescent DNA synthesis assay, 10 min; series mostly up to 60.1 µM; activity, negative = inhibition: at the top concentration. Here is the method: The processing and repair of DNA interstrand crosslinks (ICL) in eukaryotic cells are extremely complex, potentially involving multiple DNA repair and damage tolerance pathways, including homologous recombination, nucleotide excision repair, translesion synthesis (TLS), and cell cycle checkpoints.
Sequence of UniProt Q9UBT6 (Q9UBT6 whole entry, looked up): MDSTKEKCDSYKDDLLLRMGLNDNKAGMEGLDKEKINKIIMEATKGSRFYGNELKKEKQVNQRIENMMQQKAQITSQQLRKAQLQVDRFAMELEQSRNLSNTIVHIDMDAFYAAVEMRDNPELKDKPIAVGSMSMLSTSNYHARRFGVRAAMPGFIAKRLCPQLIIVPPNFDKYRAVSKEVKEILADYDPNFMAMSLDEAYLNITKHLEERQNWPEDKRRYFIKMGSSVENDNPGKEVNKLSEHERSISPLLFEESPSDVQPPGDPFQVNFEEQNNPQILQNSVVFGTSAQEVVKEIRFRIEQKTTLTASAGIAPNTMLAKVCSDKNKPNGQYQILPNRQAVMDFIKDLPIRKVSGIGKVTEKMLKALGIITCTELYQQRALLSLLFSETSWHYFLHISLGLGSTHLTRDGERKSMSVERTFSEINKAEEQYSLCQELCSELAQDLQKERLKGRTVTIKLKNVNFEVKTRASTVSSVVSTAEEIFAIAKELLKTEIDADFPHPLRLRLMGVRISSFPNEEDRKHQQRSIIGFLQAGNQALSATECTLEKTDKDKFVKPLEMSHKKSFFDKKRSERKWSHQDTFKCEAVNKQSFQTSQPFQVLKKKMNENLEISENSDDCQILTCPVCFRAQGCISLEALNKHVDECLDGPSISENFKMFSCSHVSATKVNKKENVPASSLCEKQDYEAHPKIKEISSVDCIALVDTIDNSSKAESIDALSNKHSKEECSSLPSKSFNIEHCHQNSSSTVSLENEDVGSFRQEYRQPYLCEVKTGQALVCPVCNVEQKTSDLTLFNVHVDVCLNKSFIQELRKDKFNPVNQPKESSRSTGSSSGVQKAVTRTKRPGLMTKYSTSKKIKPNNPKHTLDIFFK
To that end, in a collaboration between the Oregon Health & Science University and the NIH Chemical Genomics Center a 1536-well high-throughput screen was developed. This fluorescent screen was assayed against the NIH Molecular Libraries Small Molecule Repository (MLSMR) to discover inhibitors of Pol Kappa.
NIH Chemical Genomics Center [NCGC]
NIH Molecular Libraries Probe Centers Network [MLPCN]
Assay Submitter (PI): Stephen Lloyd, Oregon Health & Science University
Three microliters of reagents (buffer in column 3 and 4 as negative control and 10 nM Pol kappa in columns 1, 2, and 5-48) were dispensed into a 1536-well black solid-bottom plate. Compounds (23 nL) were transferred via Kalypsys pin tool equipped with 1536-pin array. The plates were then incubated for 15 min at room temperature, and 1 uL substrate (50 nM final concentration) were then added to start the reaction and kinetically read twice at 0 min and 10 min on the Viewlux reader
For `NC1C=CC=C(C(=O)O)C1` (configuration not stated), the Potency entry was “inactive”.
Consider `Clc1c(Cl)c(Cl)c(Cl)c(Cl)c1Cl`, for which the “activity, negative = inhibition” value is inactive: 17%.
Still for that read-out and setting: to `N#CC(C#N)=Cc1ccc([N+](=O)[O-])c(O)c1` belongs inactive: 5.64% [at 19.4 µM]; to `C[C@H](N)C(=O)NCC(=O)N[C@H]1CSSC[C@@H](C(=O)O)NC(=O)[C@H](CO)NC(=O)[C@H]([C@@H](C)O)NC(=O)[C@H](Cc2ccccc2)NC(=O)[C@H]([C@@H](C)O)NC(=O)[C@H](CCCCN)NC(=O)[C@@H](Cc2c[nH]c3ccccc23)NC(=O)[C@H](Cc2ccccc2)NC(=O)[C@H](Cc2ccccc2)NC(=O)[C@H](CC(N)=O)NC(=O)[C@H](CCCCN)NC1=O`, inactive: 14.5%.
Same read-out and setting: to `Cc1ccc(NC(=O)N(C)C)cc1Cl` belongs inactive: 16.5%; to `C[C@@H](COc1ccccc1)N(CCCl)Cc1ccccc1`, inactive: -5.98% [at 12 µM].
Turning to `CCCCC/C=C\C/C=C\C/C=C\C/C=C\CCCC(=O)NCc1ccoc1`, the Potency is active: 7.94 µM.
Take `O=C(O)CO.[NH2-].[NH2-].[Pt+2]`: the “activity, negative = inhibition” value is inactive: -0.736% [at 19.4 µM].
As to `COc1ccc(CN2C(=O)NC(=O)/C(=C/c3ccoc3)C2=O)cc1`, the Potency is active: 20 µM.
On the same count and under the same terms, next, `Nc1ccc(CCN2CCN(c3cccc(C(F)(F)F)c3)CC2)cc1`: “inactive”.
As to `Cc1cccc(C2=NN(c3ccc(Br)cc3)[C@@H](C(=O)N3CCOC3=O)[C@@H]2c2ccc([N+](=O)[O-])cc2)c1`, the “activity, negative = inhibition” value is inactive: -5.8% [at 107 µM].
On the same count and under the same terms, next, `CC(C)C[C@H]1C(=O)N2CCC[C@H]2[C@]2(O)O[C@](NC(=O)[C@@H]3C=C4c5cccc6[nH]c(Br)c(c56)CC4N(C)C3)(C(C)C)C(=O)N12` (some centres not stated): inactive: 1.53% [at 107 µM].
On the same count and under the same terms, next, `CCCCC/C=C\C/C=C\C/C=C\C/C=C\CCCC(=O)O`: inactive: 4.56% [at 19.4 µM].
Regarding `NCCCC[C@@H](N)C(=O)O`, the Potency entry is “inactive”.
Take `Oc1ccc2c3c1O[C@H]1c4oc5ccccc5c4C[C@@]4(O)C(C2)N(CC2CC2)CCC314` (some centres not stated): the “activity, negative = inhibition” value is inactive: 2.33%.
With `CC(=O)OCC[N+](C)(C)C`, the Potency entry is “inactive”.
Same read-out and setting: to `Cc1cccc(OCCn2cccc2/C=C2/C(=O)NC(=O)N(Cc3ccco3)C2=O)c1` belongs active: 28.2 µM.
For the compound `C[C@H](CCC(=O)O)[C@H]1CC[C@H]2[C@@H]3CC[C@@H]4C[C@H](O)CC[C@]4(C)[C@H]3CC[C@]12C`, the “activity, negative = inhibition” value is inactive: -30.3% [at 107 µM].
Same read-out and setting: next, `Cc1cc(O)c2c(c1)C(=O)c1cc(O)cc(O)c1C2=O`: inactive: -18.4% [at 19.4 µM]; `C/C=C1/CN2CC[C@]34C(=C(C=O)[C@H]1C[C@@H]23)Nc1ccccc14`: inactive: -9.93% [at 19.4 µM].
Still for that read-out and setting: next, `CC(C)[C@H](NC(=O)[C@H](CC(=O)O)NC(=O)[C@H](Cc1ccccc1)NC(=O)[C@@H](C)NC(=O)[C@@H](N)Cc1ccc(O)cc1)C(=O)N[C@H](C(=O)NCC(N)=O)C(C)C`: inactive: 14.8%; `CN1CCc2cc3c(c4c2C1Cc1ccccc1-4)OCO3` (configuration not stated): inactive: -1.94% [at 107 µM].
As for `Cc1cccc2c3c(ccc12)C1=C(C(=O)C3=O)C(C)CO1` (configuration not stated), the Potency was active: 20 µM.
As to `CCCCC/C=C\C/C=C\C/C=C\C/C=C\CCCC(=O)OC(CO)CO`, the “activity, negative = inhibition” value was inactive: 3.28% [at 19.4 µM].
Still for that read-out and setting: to `CCN(CC)C(=O)N[C@@H]1C[C@H]2c3cccc4[nH]cc(c34)C[C@@H]2N(C)C1` belongs inactive: -3.23% [at 12 µM] and inactive: -4.16% [at 12 µM].
As to `CC(N)C(O)c1ccc(O)c(O)c1` (configuration not stated), the Potency is active: 3.16 µM.
With `CC(=O)O[C@H]1C2[C@@H](OC(=O)Cc3ccccc3)[C@@H](C)C[C@]2(OC(C)=O)C(=O)/C(C)=C/[C@@H]2[C@H](CC[C@@]13CO3)C2(C)C` (some centres not stated), the “activity, negative = inhibition” value is inactive: 0.788%.
As for `N=C(N)c1ccc(-c2ccc(-c3ccc(C(=N)N)cc3)o2)cc1`, the Potency is active: 12.6 µM.
Take `CC(CO)NC(=O)C1C=C2c3cccc4[nH]cc(c34)CC2N(C)C1` (configuration not stated): the “activity, negative = inhibition” value is inactive: -4.97%.
Same read-out and setting: to `COC[C@H]1OC(=O)c2coc3c2[C@@]1(C)C1=C(C3=O)[C@H]2CCC(=O)[C@@]2(C)C[C@H]1OC(C)=O` belongs inactive: -13.6% [at 19.4 µM]; to `O=C1OC(=O)C2C1[C@@H]1CC[C@H]2O1` (some centres not stated), inactive: 3.25% [at 107 µM].
Turning to `N#C/C(=C\c1ccc(O)c(O)c1)C(=O)NCCCNC(=O)/C(C#N)=C/c1ccc(O)c(O)c1`, the Potency was active: 0.299 µM.
Turning to `C[C@]12CC[C@@H]3c4ccc(O)cc4C[C@@H](CCCCCCCCCS(=O)CCCC(F)(F)C(F)(F)F)[C@H]3[C@@H]1CC[C@@H]2O` (some centres not stated), the “activity, negative = inhibition” value is inactive: -7.65%.
Regarding `Cc1cc(/C=C2\C(=O)NC(=O)N(c3cccc(F)c3)C2=O)c(C)n1-c1cc(C(=O)O)cc(C(=O)O)c1`, the Potency is active: 50.1 µM.
In the case of `CC(=O)c1c(O)c(C)c(O)c(Cc2c(O)c3c(c(C(=O)/C=C/c4ccccc4)c2O)OC(C)(C)C=C3)c1O`, the Potency entry is “inactive”.
On to `COc1ccc(C(c2ccc(OC)cc2)C(Cl)(Cl)Cl)cc1`, for which the “activity, negative = inhibition” value was inactive: -10.6%.
The same measure, in the same setting: next, `CCN1C[C@]2(OC(=O)c3ccccc3NC(C)=O)CCC(OC)C34C5C[C@H]6C(OC)[C@]5(O)[C@](O)(C[C@@H]6OC)C(C[C@@H]32)[C@H]14` (some centres not stated): inactive: -4.54% [at 107 µM].
Consider `COc1ccc(N2C(=O)NC(=O)/C(=C\c3ccc([N+](=O)[O-])s3)C2=O)cc1`, for which the Potency is active: 50.1 µM.
On the same count and under the same terms, to `Cc1ccc2c(C)c3ccc4ccccc4c3c[n+]2c1` belongs active: 39.8 µM; to `COc1cc2c(cc1O)CC1c3c(cc(O)c(OC)c3-2)CCN1C` (configuration not stated), “inactive”.
As for `CC(=O)OC1C2C(OC(=O)Cc3ccccc3)C(C)CC2(OC(C)=O)C(=O)/C(C)=C/C2C(CC[C@@]13CO3)C2(C)C` (some centres not stated), the “activity, negative = inhibition” value is inactive: -15.6%.
As for `O=C(Nc1ccc(F)cc1F)c1cccnc1Oc1cccc(C(F)(F)F)c1`, the Potency entry was “inactive”.
For `Oc1ccc(Cl)cc1Cc1cc(Cl)ccc1O`, the Potency entry was “inactive”.
On the same count and under the same terms, next, `CCCC(C)(COC(N)=O)COC(=O)NC(C)C` (configuration not stated): “inactive”.
With `NC(=O)[C@H](Cc1ccccc1)NC(=O)[C@H](Cc1c[nH]c2ccccc12)NC(=O)[C@@H]1CCCN1C(=O)[C@@H](N)Cc1ccc(O)cc1`, the “activity, negative = inhibition” value is inactive: 15.7%.
For `Oc1ccc2c3c1O[C@H]1[C@@H](O)CC[C@@]4(O)C(C2)N(CC2CCC2)CCC314` (some centres not stated), the Potency entry was “inactive”.
On the same count and under the same terms, next, `COc1cccc([C@@]2(O)CCCC[C@@H]2CN(C)C)c1`: “inactive”; `CCC(=O)O[C@H]1CC[C@H]2[C@@H]3CCC4=CC(=O)CC[C@]4(C)[C@H]3CC[C@]12C`: “inactive”.
Regarding `CCOc1cncc(/C=C/CCNC)c1`, the “activity, negative = inhibition” value was inactive: 17.2%.
On the same count and under the same terms, next, `CN1CC(CNC(=O)OCc2ccccc2)CC2c3cccc4c3c(cn4C)CC21` (configuration not stated): inactive: -12.9%.
Consider `COc1cc2c(cc1O)C[C@H]1c3c(cc(O)c(OC)c3-2)CCN1C`, for which the Potency result was “inactive”.
Still for that read-out and setting: to `COC(=O)[C@@H](Cc1ccccc1)N(Cc1ccccc1)S(=O)(=O)N(Cc1ccccc1)[C@H](Cc1ccccc1)C(=O)OC` belongs “inactive”.
